According to publication PMC4336329 (PLoS ONE, 2015):
Screen size: about 310,000 compounds; about 2,200 (0.71%) showed an effect of 50% or more. Effects have a minus sign here. This is one part of the list.

Molecular target: human ether-à-go-go-related gene (hERG) potassium channel (human, UniProt Q12809)
Assay: primary screen, population patch clamp on CHO cells stably expressing hERG

Sequence of human ether-à-go-go-related gene (hERG) potassium channel (Q12809 whole entry, looked up): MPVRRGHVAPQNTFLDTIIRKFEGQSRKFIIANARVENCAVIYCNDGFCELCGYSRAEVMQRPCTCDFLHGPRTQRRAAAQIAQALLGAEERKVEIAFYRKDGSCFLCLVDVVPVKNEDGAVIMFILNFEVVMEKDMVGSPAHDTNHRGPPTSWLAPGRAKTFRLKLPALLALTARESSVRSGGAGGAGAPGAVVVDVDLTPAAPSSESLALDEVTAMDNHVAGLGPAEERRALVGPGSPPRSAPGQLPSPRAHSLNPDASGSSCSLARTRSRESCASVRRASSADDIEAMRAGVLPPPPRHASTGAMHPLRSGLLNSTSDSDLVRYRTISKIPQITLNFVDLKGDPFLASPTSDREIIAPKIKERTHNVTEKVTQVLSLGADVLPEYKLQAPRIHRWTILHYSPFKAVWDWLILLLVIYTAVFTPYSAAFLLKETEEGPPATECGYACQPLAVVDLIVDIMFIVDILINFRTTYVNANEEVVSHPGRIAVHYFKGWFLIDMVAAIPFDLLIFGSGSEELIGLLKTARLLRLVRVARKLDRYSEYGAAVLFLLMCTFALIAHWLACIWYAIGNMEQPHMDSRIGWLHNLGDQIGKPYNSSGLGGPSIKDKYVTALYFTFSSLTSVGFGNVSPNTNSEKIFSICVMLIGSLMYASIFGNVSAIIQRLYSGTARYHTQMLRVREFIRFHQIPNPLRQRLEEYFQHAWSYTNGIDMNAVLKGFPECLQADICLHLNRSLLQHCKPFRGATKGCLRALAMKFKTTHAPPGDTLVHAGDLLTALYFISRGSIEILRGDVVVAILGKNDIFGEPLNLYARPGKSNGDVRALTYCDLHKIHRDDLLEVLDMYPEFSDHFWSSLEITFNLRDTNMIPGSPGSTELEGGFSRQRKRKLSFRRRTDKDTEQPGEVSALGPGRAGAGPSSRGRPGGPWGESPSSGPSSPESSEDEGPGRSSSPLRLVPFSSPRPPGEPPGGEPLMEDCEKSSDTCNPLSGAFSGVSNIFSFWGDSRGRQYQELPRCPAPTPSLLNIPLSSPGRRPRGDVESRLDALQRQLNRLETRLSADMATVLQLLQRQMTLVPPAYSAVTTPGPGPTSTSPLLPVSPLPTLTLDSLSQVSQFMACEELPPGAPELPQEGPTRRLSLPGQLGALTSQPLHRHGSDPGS

Compound	hERG current change (%, negative = inhibition) at 1uM [%]
Fc1ccccc1-c1ccc(/C=N/Nc2nc3ccccc3[nH]2)o1	12.2
NS(=O)(=O)c1ccc(CCNC(=O)COC(=O)Cc2c(F)cccc2Cl)cc1	11.8
Cc1ccc(OCC(=O)N/N=C2\CC(=O)CC(C)(C)C2)c(Br)c1	9.05
COC(=O)NCC(c1ccco1)N1CCN(c2ccc(OC)cc2)CC1 (centres unmarked)	9.27
COC(=O)Cn1cnc2c(C#N)c3n(c2c1=O)CCCCC3	0.865
COc1ccccc1/C=N/NC(=O)c1ccc(=O)n(C)c1	12.3
O=C(CCC(=O)Nc1nnc(C2CCCCC2)s1)NCC1CCCO1 (centres unmarked)	16.2
O=C(CSc1nnc(-c2n[nH]c3ccccc23)n1-c1ccccc1)Nc1cccc(Cl)c1	0.634
NC(=O)CC(NC(=O)c1ccccc1)c1ccc(NC2CCCCCCC2)c([N+](=O)[O-])c1 (centres unmarked)	7.77
Cc1ccc(-n2c(-c3nn(C)cc3Cl)n[nH]c2=S)cc1	14.8
Cc1cccc(N=C2NC(=O)/C(=C/c3cccnc3)S2)c1C	13
O=C(CN(C(=O)c1csnn1)c1ccccc1)NCc1ccc2c(c1)OCO2	-6.32
Cc1nn(Cc2ccc(Cl)c(Cl)c2)c(C)c1NC(=O)c1cn(-c2ccccc2)nc1-c1ccccc1	9.66
COc1ccc(NC(=O)c2ccc(NC(=O)CSc3nc(N)cc(=O)[nH]3)cc2)cc1	10.3
CCN(c1ccccc1)S(=O)(=O)c1ccc(C(=O)NCCCn2ccnc2)cc1	8.42
CCCCN(CC)CCCNC(=O)Cn1nc(Cc2ccncc2)c2ccccc2c1=O	-5.25
COc1ccc(NC(=O)CN(C)C(=O)CCCNC(=O)c2ccc(Cl)cc2)cc1	-5.16
C/C(=N\NS(=O)(=O)c1ccc(C)c([N+](=O)[O-])c1)c1cccs1	15
COCCN(C(=O)COC(=O)c1oc2ccc(OC)cc2c1C)c1c(N)n(Cc2ccccc2)c(=O)[nH]c1=O	5.78
CCCCNS(=O)(=O)c1ccc2nc(-c3cccnc3)cc(C(=O)NCCCOCC)c2c1	8.06
CCOC(=O)C1=C(C)Nc2sc(C(=O)c3ccc(F)cc3)c(N)c2C1c1ccc(C(=O)OC)cc1 (centres unmarked)	12.3
CCc1nn(C(C)C(=O)NC(C)CCc2ccco2)c(=O)c2cc3occc3n12 (centres unmarked)	-1.26

Compound	hERG current change (%, negative = inhibition) at 1uM [%]
O=C(Nc1nnc(-c2cc(Cl)ccc2Cl)o1)c1ccco1	-16.7
CCOc1ccc(CN2CCN(CCCn3cccn3)CC2CCO)cc1 (centres unmarked)	-83
CNC(=O)COc1ccc(-c2nn(C)c(=O)c3ccccc23)cc1	9.87
CCC(=O)Nc1ccc(C(=O)N/N=C/c2c(C)[nH]c3ccccc23)cc1	6.93
Cc1onc(-c2ccccc2Cl)c1C(=O)N1C=CC(C(F)(F)F)=NCC1	7.56
COC(=O)c1c(NC(=O)c2ccccc2)sc(Cc2ccccc2)c1C	11.7
Cc1nn(-c2ccccc2)c(C)c1/C=C/C(=O)OCC(=O)NC1CCS(=O)(=O)C1 (centres unmarked)	0.376
O=S(=O)(Cc1ccc(Cl)cc1)N1CCN(Cc2ccccc2)CC1	3.38
O=C(NN=C1CCCCC1)Nc1ccccc1Cl	7.34
CC(C)c1ncc(C(O)c2cccc3ccccc23)n1C (centres unmarked)	6.84
CCCn1c(N2CCN(CC(=O)c3c(C)n(C)c4ccccc34)CC2)nc2c1c(=O)[nH]c(=O)n2C	-0.255
C/C(CCC1CC(C)OC1=O)=N\NC(N)=S (centres unmarked)	4.81
CC(C)c1ccc2[nH]c3c(c2c1)[C@@H]1CCN2C(=O)CCC[C@H](C3)[C@H]12	6.39
CC(=O)Nc1ccc(S(=O)(=O)N2CCC(C(N)=O)(N3CCCCC3)CC2)cc1	10.4
COc1cc2nc(CN(C)Cc3ccc(SC)cc3)[nH]c(=O)c2cc1OC	-1.18
CCCCCCCCNc1nc(Cl)nc(NCCN2CCOCC2)n1	4.17
O=C(/C=C/c1ccc(Cl)cc1)OCC(=O)c1ccc[nH]1	12.4
COc1ccc(Cl)cc1NC(=O)C1CCN(S(C)(=O)=O)CC1	8.98
C/C(=N\NC(=O)Cn1cc([N+](=O)[O-])cn1)c1ccco1	2.82
CCOc1ccc(NC(=O)Nc2nc(SCC)ns2)cc1	12.3
O=[N+]([O-])c1cccc(S(=O)(=O)c2ccc(NCCOCCO)c([N+](=O)[O-])c2)c1	-2.71
Cc1cccc(OCCSc2nc3c([nH]2)c(=N)ncn3Cc2ccccc2)c1	4.29

Compound	hERG current change (%, negative = inhibition) at 1uM [%]
COCCc1ccc(OCC(O)CNC(C)C)cc1.O=C(O)C(O)C(O)C(=O)O (centres unmarked)	6.18
Cc1ccc(C)c(OCC(=O)N/N=C/c2c(C)nn(-c3ccccc3)c2Cl)c1C	3.04
CCOC(CCNC(=O)c1cn(C)c(=O)c2c1c1ccccc1n2C)OCC	10.1
COc1ccc(-n2c(Cc3cccn3C)nnc2SCC(=O)NCc2ccccc2Cl)cc1	4.63
CCCCN(C1CCS(=O)(=O)C1)S(=O)(=O)c1cc(C)ccc1C (centres unmarked)	-1.18
N#CCCN(Cc1cccnc1)S(=O)(=O)c1ccc(S(=O)(=O)NC2CCCCC2)cc1	12.3
CN(C)c1ccc(/C=N/NC(=O)c2ccc(CN3C(=O)c4cccc5cccc3c45)cc2)cc1	8.79
CCC(C)COC(=O)c1ccc(C(=O)O)cc1 (centres unmarked)	5.86
Cc1cccc(N2CCN(C(c3ccncc3)c3nnnn3C(C)(C)C)CC2)c1C (centres unmarked)	-2.35
S=C(Nc1ccc(Cl)cc1Cl)Nn1cnnc1	29.8
O=C(Nc1ccc(Cl)cc1)Nc1nnc(/C=C/c2ccccc2)s1	8.01
Cc1c(C(=O)N2CCN(C(=O)c3ccco3)CC2)oc2c(Cl)cccc12	6.18
CC(C)C(=O)NC(=S)Nc1ccc(S(=O)(=O)Nc2ccccc2)cc1	-3.61
CC(=O)c1cc2c(cc1NC(=O)CN1CCC(Cc3ccccc3)CC1)OCO2	6.87
CCN(CC)CCCN(Cc1cc2cc3c(cc2[nH]c1=O)OCO3)C(=O)Nc1ccccc1OC	7.28
COc1ccc(CCNC(=O)c2c(O)c3ccccc3n(C)c2=O)cc1	10.5
CSc1ccccc1C(=O)NCCCn1ccnc1	16.6
COc1cc(S(=O)(=O)N(C)C)ccc1Br	6.22
Cc1[nH]c2ccccc2c1CCNC(=O)c1ccc2c(c1[N+](=O)[O-])C(=O)c1ccccc1C2=O	15.4
CN(C)CCNC(=O)C(=O)NCC1CCCN1S(=O)(=O)c1cccs1 (centres unmarked)	15.4
CC(NC(=S)NC1CCCCC1)C(c1cccs1)N1CCOCC1 (centres unmarked)	12
COCCCn1c(C(=O)N2CCOCC2)cc2c(=O)n3ccccc3nc21	3.13

Compound	hERG current change (%, negative = inhibition) at 1uM [%]
O=C(Nc1ccccc1C(=O)N1CCCCCC1)c1cccc([N+](=O)[O-])c1	6.47
O=C(OCC(=O)c1cccs1)c1ccc([N+](=O)[O-])o1	10.3
CCC(C)[C@H](N)c1cn([C@@H](CCCCN)C(=O)N2CCNCC2)nn1.Cl (some centres unmarked)	14.1
CCOc1ccc(S(=O)(=O)Nc2ccc(S(=O)(=O)Nc3cc(OC)ccc3OC)cc2)cc1	9.61
CCOc1cc(-c2noc(CCC(=O)N3CCOCC3)n2)ccc1OC	10.3
COc1cccc(-c2nnc(Nc3nc4c(F)cccc4s3)o2)c1	12.4
Cc1cc(NC(=O)c2cc(C)on2)n(-c2ccccc2)n1	1.51
COc1ccc(N2Cc3ccccc3/C2=N\C(=O)Nc2ccccc2)cc1	13.2
Cc1nc(-c2ccc(Cl)cc2)sc1C1(C)CC(c2cccnc2)=NO1 (centres unmarked)	0.743
Cc1ccc(C(=O)NCc2ccco2)cc1S(=O)(=O)N1CCCC1	5.92
O=c1c2ccccc2nc(Cc2ccccc2)n1-c1ccccc1O	13.2
Cc1c(Br)c([N+](=O)[O-])nn1CCCC(=O)Nc1sc2c(c1C#N)CCC2	-19.6
O=C(O)c1ccc(C=C(c2nc3ccccc3s2)c2nc3ccccc3s2)cc1	13
CCOC(=O)C1(Cc2cccc(OC)c2)CCCN(C(=O)c2ccccc2C)C1 (centres unmarked)	-25.7
Cc1ccc(Nc2nc3ccccc3c(=O)[nH]2)cc1C	13.2
O=C1c2ccccc2C(=O)N1CCc1csc(-c2cccc(F)c2)n1	-3.24
COc1ccc2[nH]c3c(c2c1)CCNC3C.Cl (centres unmarked)	17.3
COc1cc(CN2CCN(C(=O)c3ccccc3F)CC2)cc(OC)c1OC.O=C(O)C(=O)O	8.8
CC1CCC2(CC1)NC(=O)N(NC(=O)CCl)C2=O (centres unmarked)	6.31
CCN(CC)C(=O)CC(c1ccc(F)cc1)c1ccco1 (centres unmarked)	8.39
